Reference: PubChem BioAssay (NCATS)
Where “and” joins values, the source holds several entries; their conditions need not be identical. Equal values may be shown once. This list was built around the results that the source calls inconclusive (neither active nor inactive); the mix of calls is not that of the screen. Where the call is inconclusive, the potency comes from a doubtful curve fit. Calls of active or inactive are those of the source. Calls follow the shape of the dose curve; as a rule, active = well fitted cell-killing curve with a large enough effect; inconclusive = small, poorly fitted or top-dose-only effect, or effect the other way; inactive = no such curve, though single readings can be large or run the other way.

How the values were obtained:
[1] = Viability qHTS for spleen associated tyrosine kinase inhibitor (SYKi) naive MV4-11 cells (AID 1963823); conditions: MV4-11 AML viability, CellTiter-Glo luminescence, 72 h; series mostly up to 45 µM; also: nearly all actives have a fitted effect of over 40% in size
How it was run: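 Read-out: CellTiter-Glo luminescence. Exposure: 72 hr, 37 C, 5% CO2, 95% humidity. Cells: MV4-11 without SYK inhibitor history, 500/well, qHTS format.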

[2] = Viability qHTS for spleen associated tyrosine kinase inhibitor (SYKi) drug resistant MV4-11 cells (AID 1963824); also: nearly all actives have a fitted effect of over 35% in size
How it was run: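 SYK inhibitor-resistant MV4-11 AML cells, 500 per well, added to predispensed compounds and incubated 72 hr at 37 C, 5% CO2. Viability measured by CellTiter-Glo luminescence after 10 min at room temperature.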
Potency is read from the fitted curve at half-maximal effect; tags tell the direction and shape of the fitted curve.

Compound	Potency [1]	Potency [2]
CCC(C)C(=O)OC12C(OC(C)=O)C(C)C3(O)C(C=C(CO)CC4(O)C(=O)C(C)=CC43)C1C2(C)C (stereo not given)	inconclusive: 0.252 µM [cytotoxic, full curve]	inconclusive: 0.126 µM [cytotoxic, full curve]
Cc1cc(C(=O)Nc2cccc(C(=O)Nc3cccc(C(F)(F)F)c3)c2)on1	inactive	inactive
CN[C@H]1CCN(C(=O)c2ccc(Nc3ncc(F)c(-c4cnc(C)n4C(C)C)n3)cc2)C1	active: 0.058 µM	active: 0.0517 µM
Cc1ccc(COC(=O)N2CC[C@@H](CNc3ncccn3)[C@@H](F)C2)cc1	inconclusive: 14.6 µM [cytotoxic, partial curve]	inconclusive: 20.6 µM [cytotoxic, partial curve]
COC(=O)C1=CO[C@@H](O[C@@H]2O[C@H](CO)[C@@H](O)[C@H](O)[C@H]2O)[C@H]2[C@@H]1CC(OC)O[C@@H]2C (stereo not given in full)	inactive	inactive
CC12CC(O)C(O)C=C1c1cc(O)cc(O)c1C(=O)O2 (stereo not given)	inactive	inactive
O=C(OC(C(F)(F)F)C(F)(F)F)N1CCN(Cc2cccc(Oc3ccccc3)c2)CC1	inconclusive: 20.6 µM [cytotoxic, partial curve]	inconclusive: 14.6 µM [cytotoxic, single point]
Cc1nn(-c2ccccc2)c(C)c1/C=N/N1CCN(Cc2ccccc2)CC1	inconclusive: 13 µM [cytotoxic, partial curve]	inconclusive: 14.6 µM [cytotoxic, partial curve]
Clc1ccc(Cn2c(Cc3ccccc3)nc3ccccc32)cc1	inconclusive: 18.4 µM [cytotoxic, partial curve]	active: 16.4 µM
C=C1[C@@H]2CC[C@@]3(C)[C@H](c4ccoc4)OC(=O)C[C@]13O[C@H]1CC(=O)C(C)(C)[C@H](C(O)C(=O)OC)[C@]12C (stereo not given in full)	inactive	inactive
CC1NC(=O)CCCNC(=O)C(Cc2c[nH]c3ccccc23)NC(=O)C(C)NC(=O)C(C(C)C)NC(=O)C(C(C)c2ccccc2)NC(=O)C(C(C)C)NC1=O (stereo not given)	inconclusive: 0.0015 µM [rising, full curve, poor fit]	inconclusive: 9.68 µM [rising, single point]
CC(C)C[C@@H](N)C(=O)O	inconclusive: 4.61 µM [cytotoxic, partial curve, poor fit]	inactive
COc1cc(C(=O)O)ccc1NC(=O)C1NC(CC(C)(C)C)C(C#N)(c2ccc(Cl)cc2F)C1c1cccc(Cl)c1F (stereo not given)	inconclusive: 10.3 µM [cytotoxic, partial curve]	inconclusive: 9.2 µM [cytotoxic, partial curve]
C[C@]12CCC(=O)C=C1C=C[C@@H]1[C@@H]2CC[C@@]2(C)[C@H]1CC[C@@]21CCC(=O)O1	inconclusive: 21.1 µM [cytotoxic, single point]	inactive
CCCC(=O)C1(c2ccccc2)CCN(C(=O)[C@@H](Cc2ccc(OC)cc2)NC(=O)[C@@H](N)Cc2cncn2C)CC1	inconclusive: 23.1 µM [cytotoxic, partial curve]	inconclusive: 16.4 µM [cytotoxic, single point]
C#C[C@]1(O)CC[C@H]2[C@@H]3CCc4cc(OC)ccc4[C@H]3CC[C@@]21C	inconclusive: 9.44 µM [cytotoxic, partial curve, poor fit] and inconclusive: 10.5 µM [cytotoxic, partial curve]	active: 13.3 µM and inconclusive: 13.2 µM [cytotoxic, partial curve]
CC1CC(O)C2(C)C(C(=O)O)=CCCC2C1(C)CCc1ccoc1 (stereo not given)	inactive	inactive
CC(C)c1ccc(CC(=O)N2CCC[C@@H](c3cccc(OC(C)(C)C(=O)O)c3)C2)cc1	inconclusive: 23.1 µM [cytotoxic, single point]	inconclusive: 20.6 µM [cytotoxic, partial curve]
O=C(O)Cc1cc(I)c(Oc2ccc(O)c(I)c2)c(I)c1	inconclusive: 23.1 µM [cytotoxic, single point]	inconclusive: 18.4 µM [cytotoxic, partial curve]
C=C1CC23CC1CCC2C12OC(=O)C(C)(CCC1O)C2C3C(=O)O (stereo not given)	inactive	inactive
